# Measured values as given in PMC5892938.
# The other results are listed elsewhere or left out. Construct or isoform of the protein are uncertain.
# Molecular target: GST-SBP-ILF3 (Homo sapiens) (UniProt Q12906)
# Experiment: targeted RNA Bind-n-Seq
# Details: RBNS binding buffer: 25 mM Tris pH 7.5, 150 mM KCl, 3 mM MgCl2, 0.1% Tween, 0.5 mg/mL BSA, 1 mM DTT; 27 nM protein, 750 pM RNA pool; temperature not stated; high values mean tight binding; sequences stand for … in GGGUAAAAGCGAGGUGAA…CGGGACAAGUAUUAUGGG
row,Sequence,binding signal (log2 fold change)
1,GGUUGGUGUGUUGGUCUCUAACACAUCAGC [gtspaired],-0.954
2,GGUUGUUGUGUUGGCGUCUAACACAGCAAC [gtspaired],-0.872
3,UUUUUUUUUUGAGAGCGGAGCGCUCUCCGG [tttttgagapaired],0.142
4,UUUUUUUUUUGAGACGGGGUCCGUUUCCUA [tttttgagapaired],0.71
5,UUUUUUUUUUGAGACGGAUACCGUUUCCUA [tttttgagapaired],0.267
6,GGUGUGUGUGUUGGCUCCUAACACACGCGC [gtspaired],-0.518
7,UUUUUUUUUUGAGAGGGCGACCCUCUCCUA [tttttgagapaired],0.337
8,UUUUUUUUUUGAGAUGGGGUCCGUCUCCUA [tttttgagapaired],0.856
9,GUGUGGUGUGUUGGAUCCUAACACAUCGCG [gtspaired],-0.768
10,UUUUUUUUUUGAGACCGCUCCGGUCUCCAG [tttttgagapaired],0.855
11,UUUUUUUUUUGAGAACGGGACGUUCUCCGG [tttttgagapaired],0.263
12,GUGGUUGGUGUUGGUCUCUAACACCGACCG [gtspaired],-1.2
13,GGUGGUUGUGUUGGCCCCUAACACAAUCGC [gtspaired],-0.185
14,UUUUUUUUUUGAGACUGGAUCAGUUUUCUA [tttttgagapaired],0.0191
15,UUUUUUUUUUGAGAGGGGAGCCCUCUCCGG [tttttgagapaired],0.7
16,UUUUUUUUUUGAGAGGGGAGCCCUCUCCAG [tttttgagapaired],0.747
17,UUUUUUUUUUGAGAUGGGAUCCGUCUCCUG [tttttgagapaired],0.295
18,UUUUUUUUUUGAGAACGGCACGUUCUCCGG [tttttgagapaired],0.326
19,GUUGUGUGUGUUGGCCUCUAACACACGCGA [gtspaired],-0.811
20,UUUUUUUUUUGAGAUGGCAGCCAUUUCCAG [tttttgagapaired],0.515
21,UUUUUUUUUUGAGAUGGUUUCCAUCUCCGG [tttttgagapaired],0.0461
22,UUUUUUUUUUGAGAUGGUGUCCAUCUCCGG [tttttgagapaired],0.466
23,UUUUUUUUUUGAGACUGGCACAGUUUCCAG [tttttgagapaired],0.461
24,GGUUGUUGUGUUGGACCCUAACACAGCAAC [gtspaired],0.038
25,UUUUUUUUUUGAGACUGGUUCAGUCUUCUA [tttttgagapaired],-0.201
26,UUUUUUUUUUGAGACCGGGGCGGUCUUCUG [tttttgagapaired],0.747

row,Sequence,binding signal (log2 fold change)
1,UUUUUUUUUUGAGAUGGGGACCAUCUCCUG [tttttgagapaired],0.59
2,UUUUUUUUUUGAGACCGCGGCGGUCUUCUA [tttttgagapaired],0.702
3,UUCCUCUCUCCUCCAGAGGAGGGGGGAGGA [ctspaired],-0.407
4,UUUUUUUUUUGAGACGGAAACUGUCUCCGG [tttttgagapaired],0.789
5,UUUUUUUUUUGAGACGGUAACCGUUUCCGG [tttttgagapaired],0.643
6,UUUUUUUUUUGAGAGGGGCCCCCUCUUCUA [tttttgagapaired],0.54
7,GGUUGGUGUGUUGGACUCUAACACAUCAAC [gtspaired],-0.135
8,UUUUUUUUUUGAGACCGCUGCGGUCUCCUG [tttttgagapaired],1.01
9,UUUUUUUUUUGAGAGCGGGGCGCUCUCCAG [tttttgagapaired],0.359
10,UUUUUUUUUUGAGACGGGAACCGUUUCCAG [tttttgagapaired],0.431
11,UUUUUUUUUUGAGAUGGUAUCCAUCUUCUG [tttttgagapaired],0.203
12,UUCUCUCUUCCUCCAAGGGAGGAGGAGGGA [ctspaired],-0.188
13,UUUUUUUUUUGAGACGGAAUCUGUCUUCUG [tttttgagapaired],0.355
14,GUGUGUGGUGUUGGUCUCUAACACCAUACA [gtspaired],-0.413
15,GGUUGUGGUGUUGGAUCCUAACACCGCGAC [gtspaired],-0.616
16,UUUUUUUUUUGAGAUCGGAUCGAUCUCCUA [tttttgagapaired],-0.025
17,UUUUUUUUUUGAGAUGGUGACUAUCUUCUA [tttttgagapaired],0.0416
18,UUUUUUUUUUGAGACCGAAACGGUCUCCAG [tttttgagapaired],0.455
19,UUUUUUUUUUGAGACUGUAUCAGUCUCCUA [tttttgagapaired],-0.146
20,UUUUUUUUUUGAGAUCGUAUCGAUCUCCUG [tttttgagapaired],0.0385
21,UUUUUUUUUUGAGACCGUGACGGUCUCCAG [tttttgagapaired],0.373
22,UUUUUUUUUUGAGAGCGUAUCGCUCUCCAG [tttttgagapaired],0.105
23,GUGUGUGGUGUUGGAACCUAACACCGCGCA [gtspaired],-0.821
24,UUUUUUUUUUGAGAGUGAGACACUCUCCAG [tttttgagapaired],0.0923
25,UUUUUUUUUUGAGACUGAGGCAGUCUUCUA [tttttgagapaired],0.523
26,UUUUUUUUUUGAGACCGAUCCGGUCUCCUG [tttttgagapaired],0.678

row,Sequence,binding signal (log2 fold change)
1,UUUUUUUUUUGAGAUGGUGUCUAUCUCCUA [tttttgagapaired],0.591
2,UUUUUUUUUUGAGAAGGUGUCCUUCUCCUA [tttttgagapaired],0.196
3,GUGGUGUGUGUUGGCUCCUAACACAUACUA [gtspaired],-0.517
4,GUGUGGUGUGUUGGCCUCUAACACACUAUA [gtspaired],-1.02
5,GUGUGUGGUGUUGGCCUCUAACACCAUACG [gtspaired],-0.658
6,GUUGUGUGUGUUGGAUUCUAACACACGCAG [gtspaired],-0.855
7,UUUUUUUUUUGAGAACGAUUCGUUCUCCUA [tttttgagapaired],-0.217
8,UUUUUUUUUUGAGAUGGGUACCAUCUUCUA [tttttgagapaired],0.548
9,GUGUGGUGUGUUGGUCUCUAACACACCGCG [gtspaired],-0.83
10,UUUUUUUUUUGAGACGGGUACCGUCUCCUA [tttttgagapaired],-0.146
11,GUUGGUGGUGUUGGAGCCUAACACCGCCGA [gtspaired],-0.249
12,UUUUUUUUUUGAGAUGGGUACCAUUUCCAG [tttttgagapaired],0.323
13,UUUUUUUUUUGAGACCGCGACGGUCUUCUG [tttttgagapaired],0.549
14,GGUGUGUGUGUUGGACUCUAACACAUACAC [gtspaired],-0.237
15,GUGGUUGGUGUUGGUGCCUAACACCGACUA [gtspaired],-0.312
16,UUCUUCUCUCCUCCGCUGGAGGGGGGAAGA [ctspaired],-0.973
17,UUUUUUUUUUGAGACUGGGACAGUCUCCAG [tttttgagapaired],0.54
18,UUUUUUUUUUGAGACGGCGACCGUCUUCUG [tttttgagapaired],0.791
19,GUGGUGUGUGUUGGUGUCUAACACACAUCA [gtspaired],-0.108
20,GGUGUUGGUGUUGGUUCCUAACACCGAUAC [gtspaired],-0.305
21,GUGUGGUGUGUUGGCCUCUAACACACCACG [gtspaired],-0.272
22,UUUUUUUUUUGAGAAGGAAUCCUUCUCCAG [tttttgagapaired],-0.262
23,UUUUUUUUUUGAGACGGUAGCCGUCUCCUA [tttttgagapaired],0.45
24,UUUUUUUUUUGAGAUGGCGACCAUCUCCGG [tttttgagapaired],0.383
25,UUUUUUUUUUGAGAUCGGCACGAUCUCCUA [tttttgagapaired],0.154
26,GUGUGUGGUGUUGGAUUCUAACACCGCAUA [gtspaired],-0.372

row,Sequence,binding signal (log2 fold change)
1,GUUGGUGGUGUUGGCACCUAACACCGCCAG [gtspaired],-0.94
2,UUUUUUUUUUGAGACCGCGACGGUCUCCAG [tttttgagapaired],0.374
3,UUCUUCUCUCCUCCGGGGGAGGGGGGAAGA [ctspaired],-0.476
4,UUUUUUUUUUGAGACUGCUUCAGUCUCCGG [tttttgagapaired],0.183
5,UUUUUUUUUUGAGAUCGACGCGAUCUUCUG [tttttgagapaired],0.593
6,GUUGGUGGUGUUGGAUCCUAACACCGCCAG [gtspaired],-0.431
7,UUUUUUUUUUGAGACGGACACUGUCUCCUA [tttttgagapaired],0.806
8,UUUUUUUUUUGAGAGGGAUCCCCUUUCCGG [tttttgagapaired],0.0875
9,UUUUUUUUUUGAGAUCGAAGCGAUCUUCUG [tttttgagapaired],0.307
10,UUUUUUUUUUGAGAGUGAUACACUCUUCUA [tttttgagapaired],-0.202
11,UUUUUUUUUUGAGAGUGAACCACUCUCCAG [tttttgagapaired],-0.0443
12,UUUUUUUUUUGAGAGGGCUACCCUCUCCUG [tttttgagapaired],0.689
13,GUUGGUGGUGUUGGUCUCUAACACCAUCAA [gtspaired],-0.28
14,UUUUUUUUUUGAGACUGGGUCAGUCUCCGG [tttttgagapaired],0.382
15,UUUUUUUUUUGAGAGGGUGGCCCUCUCCUG [tttttgagapaired],0.92
16,GUUGGUGGUGUUGGAGUCUAACACCGCCGA [gtspaired],-0.317
17,GUGUGUGGUGUUGGCACCUAACACCACGCG [gtspaired],-0.596
18,UUUUUUUUUUGAGACGGACUCCGUCUCCGG [tttttgagapaired],0.338
19,GUGGUGUGUGUUGGUGCCUAACACAUACUA [gtspaired],-0.571
20,UUUUUUUUUUGAGACGGUUUCCGUUUCCAG [tttttgagapaired],0.692
21,GUGUGGUGUGUUGGCCCCUAACACACUAUA [gtspaired],-0.288
22,GUGUGUGGUGUUGGCACCUAACACCGCAUA [gtspaired],-0.634
23,UUUUUUUUUUGAGAGGGCGGCCCUCUCCAG [tttttgagapaired],1.16
24,UUUUUUUUUUGAGAGUGCGGCAUUCUCCGG [tttttgagapaired],0.549
25,UUUUUUUUUUGAGACUGCAACAGUUUCCUA [tttttgagapaired],0.39
